Results taken from the supplement of paper PMC11417369.
± gives the standard deviation of the averaged measurements. This is one part of the list.

tested on: PfAP2-EXP AP2 domain (GST-tagged); test: gcPBM binding intensity (ln(normalized median fluorescence intensity)); higher = stronger DNA binding
Summary of the method: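 Using an Agilent 4 × 180k array, primer-extended double-stranded 36-bp intergenic genomic probes and negative controls were exposed for 1 h to GST-fused P. falciparum DNA-binding domains expressed in E. coli. Binding was carried out in 1× PBS with 1% milk, 0.2 mg/ml BSA, 0.5% salmon testes DNA and 0.03% Triton X-100, and protein was detected with Alexa488 anti-GST antibody and a 488 nm scan. Binding intensity is the highest Masliner-normalised natural-log median intensity across replicate spots of either probe orientation.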

| Sequence | gcPBM binding intensity (ln) |
| --- | --- |
| ATATCTTATATCTTCACACATACACAATAAATACAT [CACACA_site5028] | 8.74 ± 0.42 |
| TAAGATGATATAGACTGTACATATTGAACTTACAAG [XGTACX_site4290] | 8.53 ± 0.37 |
| GAAGAAAAAGAAAAAAGTACATATATTATATTATAA [XGTACX_site7870] | 8.43 ± 0.42 |
| TAATATATTAATTTTTGTACTTAATTATATGTTTTT [XGTACX_site5654] | 8.31 ± 0.38 |
| GTTTTTAAATATGCCATACACACTACTATATAATAA [CACACA_site1927] | 8.7 ± 0.33 |
| ATTCATATTAAATATATATATATATATATATATATA [CACACA_negctrl_site484] | 10 ± 0.43 |
| ACCATGATAAATGTATTAAATGTATCATAACCTATG [CACACA_negctrl_site513] | 8.26 ± 0.38 |
| AACGAAAGAAAAAAAGCACACACAGTTTTGAGCAAT [CACACA_site8658] | 8.71 ± 0.47 |
| ATCCGTGTCTGAAATACACACATGATAATGTGAATG [CACACA_site8210] | 8.34 ± 0.34 |
| ATGGAAACAAGCATCACACATATAAATATATATATA [CACACA_site4979] | 9.725 ± 0.064 |
| TTCTTTTTGAAATATTAACACACATTTTGTTAATTA [CACACA_site9337] | 8.44 ± 0.42 |
| CAAACATTTTAATGTACACACACCCACAGACAAACA [CACACA_site5522] | 8.94 ± 0.46 |
| AGGAATTTATAAAATTGTACTTTTAATTACCTACAG [XGTACX_site3153] | 8.28 ± 0.33 |
| AATTTTCTACAAATGTGTACTAAATAAAATATTACT [XGTACX_site7175] | 8.39 ± 0.22 |
| AAAAAAGAAAAAAGGACACACATAAATATACACCCG [CACACA_site5590] | 8.74 ± 0.63 |
| ATGTGTGTATTTTATAGTACAGTTACAAGCATTTTT [XGTACX_site6351] | 8.57 ± 0.35 |
| ACAATGAGGATATATACACACATACATTAAAAAAAT [CACACA_site6955] | 8.78 ± 0.38 |
| TTTTTCTGTTCTTTTTGTACTTAAATATATTTATTT [XGTACX_site5658] | 9.03 ± 0.42 |
| CACAAAAATAAACACACACACATATATATATATATA [CACACA_site4704] | 10.2 ± 0.35 |
| AGAATATAATTTTTATGTACATATATTAAATATATT [XGTACX_site8521] | 8.49 ± 0.34 |
| AAATAAGAGAAAATATGTACATACATATATTTATAT [XGTACX_site6210] | 8.51 ± 0.37 |
| TCATAAAATATGTTTTGTACATAAAATTAAACAAGT [XGTACX_site1763] | 8.37 ± 0.2 |

| Sequence | gcPBM binding intensity (ln) |
| --- | --- |
| AATACGTTTATATATTGTACGTTATATATATATATA [XGTACX_site7452] | 9.91 ± 0.33 |
| ATATAATTTGTTATACTAACTTTTTAATTATTGATA [GTGCAC_negctrl_site443] | 8.28 ± 0.36 |
| AAATATAAATAAAGATGTACATTATCTATATGTGAT [XGTACX_site4863] | 8.52 ± 0.28 |
| TAAGTTCGAATTACTTAAATATTGATTTTTTTAAAA [TGCATGCA_negctrl_site114] | 7.96 ± 0.52 |
| AAGAAAAGCAAACAAGTGCATAATAACAAAAAAAAT [GTGCAC_site9725] | 9.13 ± 0.46 |
| TATTTATTTATAAACACACAAATATTTTTATTTATA [CACACA_site6889] | 8.05 ± 0.37 |
| GTTGGTAGATTTATTTGTACATATGTATCATATTAT [XGTACX_site7135] | 8.82 ± 0.36 |
| AAAAATTTATTTTGTTTTTTAAGATTTTTTTTTTTT [CACACA_negctrl_site1210] | 7.91 ± 0.42 |
| ATTCTAAATATCAGTGCACACATTTCTACGCAAAGT [CACACA_site474] | 8.925 ± 0.049 |
| ACATACATATATATACGTACATATATATTTATATAT [XGTACX_site5799] | 8.75 ± 0.34 |
| TAATTACAAAAACATACACACAAAAAAAAAAAAAAA [CACACA_site3782] | 8.14 ± 0.55 |
| AGCAAATACAAACACACACACACATATACATATATA [CACACA_site3497] | 8.6 ± 0.52 |
| TGTATATTATAAGATAGTACATATATATAATATATA [XGTACX_site1297] | 8.22 ± 0.11 |
| TTCATTTACCCTTATTAACACACAAAATATAATACG [CACACA_site8821] | 8.57 ± 0.44 |
| ATCTTATATATACGTTGTACTACAGGATATGTCATA [XGTACX_site5734] | 8.73 ± 0.4 |
| ATAAATATCATATATATACACACGTAATACATAATA [CACACA_site4001] | 8.4 ± 0.44 |
| TCTTACAAAAAAAAAAAAAAATAAAATAAAATATAT [CACACA_negctrl_site1575] | 8.16 ± 0.44 |
| AAGGAGATAATTTATTGTACATATAATAAATGAACA [XGTACX_site6252] | 8.44 ± 0.4 |
| TTAATATTATGTTAAAGTACTTTATATATATATAAT [XGTACX_site2646] | 8.48 ± 0.45 |
| ATATTAAGAATATATACACACATAAGTATTGTATAT [CACACA_site6110] | 8.05 ± 0.38 |
| TATTCGTGCAATAGTAGTACACTTATAAATTATTCT [XGTACX_site4899] | 8.62 ± 0.23 |
| ATAAAATAAAATAAATGTACACGAAAAAAAATATTT [XGTACX_site3747] | 9.15 ± 0.59 |

| Sequence | gcPBM binding intensity (ln) |
| --- | --- |
| AGTGAGAAATACATAATAATACATTATGTGCATATT [XGTACX_negctrl_site247] | 8.52 ± 0.26 |
| TTACTTGTTTATTTTATTTTTTTTTTTTTTTTGTTA [TGCATGCA_negctrl_site266] | 8.31 ± 0.73 |
| GTACACATATATATATATATATATATATATATATTA [CACACA_negctrl_site1580] | 8.89 ± 0.14 |
| AAGAATATTTTTTTCTGTACATATAATTTATATACG [XGTACX_site5801] | 8.33 ± 0.34 |
| TATGTACAAATATGTACACACACACCGATATATATA [CACACA_site4487] | 8.76 ± 0.18 |
| TATAATTTTCTTAGTAGTACATTTTAAATCTACTAC [XGTACX_site2621] | 8.46 ± 0.34 |
| TGTATCCACATATGTACACACATATATCTGTATATG [CACACA_site5668] | 8.86 ± 0.42 |
| ACTAATAACAAAAGCTTGCACTTTTTTTTTCCTAAT | 8.52 ± 0.33 |
| ATATAAGATTACAAAAATTATGTGTAAATATTTAAT [XGTACX_negctrl_site448] | 8.46 ± 0.33 |
| AAAAAAAAAAAAAAAAGTACAAAAATTATATTAAGA [XGTACX_site4255] | 8.41 ± 0.29 |
| AATTATATATAACGTAGTACATATTATAAACCACGT [XGTACX_site8816] | 8.52 ± 0.23 |
| ACCTATATAAATTATACACACAAATATAAATATATA [CACACA_site2843] | 8.3 ± 0.36 |
| ATATTCCTTTAATATTGTACTATTTTTTTCCTTATA [XGTACX_site8659] | 8.77 ± 0.43 |
| TATAATAATAATGATAGTACGTATGAGTTCAAGAAA [XGTACX_site4918] | 8.63 ± 0.42 |
| TGTCATAAAACCGTTTGTACATATTAATAGACACCT [XGTACX_site4520] | 8.55 ± 0.38 |
| TTGTTATTCCACCGTTGTACAGTTATATACATACAC [XGTACX_site8296] | 9.03 ± 0.36 |
| TCCATGCAGAAACACACACACAAAAAAAAATTCTTT [CACACA_site4099] | 8.42 ± 0.65 |
| AAAAAAATTACATATCCATTTTAACATAATAAATAG [GTGCAC_negctrl_site618] | 8.19 ± 0.25 |
| TTACGAATAAAACAGTGTACATTGAATTTCTATGAG [XGTACX_site4771] | 8.48 ± 0.3 |
| TTTTTGCAAAAAGAAATAATTTTATTTTAGTTCGGA [CACACA_negctrl_site1718] | 8.12 ± 0.45 |
| ATCTATGGGTAGTATACACACTGTATATTTAGGAAT [CACACA_site5569] | 8.56 ± 0.47 |
| ATTCTATTCTCCTTCACACACAAAAATATTTCATCA [CACACA_site2360] | 8.91 ± 0.45 |

| Sequence | gcPBM binding intensity (ln) |
| --- | --- |
| ATGCAATTATATAGTAGTACAAATTTATAAATATAC [XGTACX_site4869] | 8.99 ± 0.38 |
| ATTATACACCCGCGCACACACAACAAAAAAAAAAAA [CACACA_site5871] | 8.84 ± 0.26 |
| ATAATTGTTTAAAGGTGTACAATACATATATTTTAA [XGTACX_site3648] | 8.35 ± 0.28 |
| TCATATATTATATATTGTACAAAATAATAAGTATTT [XGTACX_site3987] | 8.32 ± 0.38 |
| ATATATATATATATGGGTACGTAAAAATATAATAAA [XGTACX_site4036] | 10 ± 0.25 |
| TTTTCTTTCTTTCAAACACACATTAATTTTATTCAT [CACACA_site2734] | 8.5 ± 0.51 |
| TAAAATTATTAATGAGTGCATTATAAAATCTATATA [GTGCAC_site9493] | 8.57 ± 0.4 |
| GTTGTTATATAAAATTGTACATAAAAAACAAAATAT [XGTACX_site5313] | 8.79 ± 0.42 |
| ATAAATGGCTATAGCATATTGTATATGTGATTATAA [CACACA_negctrl_site948] | 8.46 ± 0.4 |
| TATATATATATATATTGTACTAAATCATTTAAATGA [XGTACX_site8016] | 10 ± 0.3 |
| AAAAAACAAAAACACACGCACACAAAAAAAAAAAAA [CACACA_site802] | 8.35 ± 0.53 |
| CACAAATATACAAATACACACAAATATACACATATA [CACACA_site7176] | 8.51 ± 0.5 |
| ATGAAAATATTTAAAAGTACAGAAATATAAAACCTT [XGTACX_site403] | 8.79 ± 0.51 |
| TATTTTATACACTTGCTAAAACATTAACACATATGT [CACACA_negctrl_site1818] | 8.46 ± 0.47 |
| TATAAAATATAAATAAATAAATAAATATATATATAT [TGCATGCA_negctrl_site448] | 9.78 ± 0.13 |
| AAAATATTTATCATTTGTACTTAGATGTAAACTTGA [XGTACX_site1778] | 8.12 ± 0.38 |
| TTATTAAATTTTTTTTGTACTTATATATATATATAT [XGTACX_site2443] | 10.1 ± 0.17 |
| ATTATTATATAGTGTGCATGCAATATTAATAAAACC [TGCATGCA_site245] | 10.3 ± 0.4 |
| TATGAATGTATATGTTGTACATATAAATATTTATAT [XGTACX_site1146] | 8.53 ± 0.46 |
| TAAGCTTGTAACAGTTTACACACTAATATTTATAAA [CACACA_site3907] | 8.36 ± 0.47 |
| AATAAATATATTACATATATGTGTAGTATTTTTTTA [TGCATGCA_negctrl_site268] | 8.21 ± 0.45 |
| ACACATATATATTATTATTATATAATATATATATAT [CACACA_negctrl_site1545] | 9.21 ± 0.15 |
